According to PubChem BioAssay AID1159614 (National Center for Advancing Translational Sciences (NCATS), 2016):
About 65 (0.1%) of roughly 45,000 compounds were called active. Calls come from the whole dose curve; as a rule, active = well fitted activation curve with a large enough effect; inconclusive = small, poorly fitted or top-dose-only effect; inactive = no such curve, though single readings can be large or run the other way. Some of the results follow.

The compounds below were run against Galactocerebrosidase (Homo sapiens) (UniProt P54803) (assay: A Novel Cell-Based Assay to Identify Small Molecules for B -Galactocerebrosidase). Conditions: 145M-Twi-hGALC-G270D cells (Twitcher mouse brain line with human GALC G270D), HMU-beta-Gal fluorescence, 48 h; series mostly up to 57.5 µM; activation: at the top concentration.
Method in brief: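 Live 145M-Twi cells (Twitcher mouse brain-derived, GALC-null) stably expressing human GALC-G270D, with a wild-type GALC line, were compound-treated. Residual GALC activity was then read as fluorescence from 0.1 mM final HMU-β-gal at pH 5.2; higher signal means activation.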
Note: nearly all actives have a fitted effect of over 65% in size.
Potency is the fitted concentration of half-maximal effect.
Throughout, for activation: 0% is about no effect.

Sequence of UniProt P54803 (P54803 whole entry, looked up): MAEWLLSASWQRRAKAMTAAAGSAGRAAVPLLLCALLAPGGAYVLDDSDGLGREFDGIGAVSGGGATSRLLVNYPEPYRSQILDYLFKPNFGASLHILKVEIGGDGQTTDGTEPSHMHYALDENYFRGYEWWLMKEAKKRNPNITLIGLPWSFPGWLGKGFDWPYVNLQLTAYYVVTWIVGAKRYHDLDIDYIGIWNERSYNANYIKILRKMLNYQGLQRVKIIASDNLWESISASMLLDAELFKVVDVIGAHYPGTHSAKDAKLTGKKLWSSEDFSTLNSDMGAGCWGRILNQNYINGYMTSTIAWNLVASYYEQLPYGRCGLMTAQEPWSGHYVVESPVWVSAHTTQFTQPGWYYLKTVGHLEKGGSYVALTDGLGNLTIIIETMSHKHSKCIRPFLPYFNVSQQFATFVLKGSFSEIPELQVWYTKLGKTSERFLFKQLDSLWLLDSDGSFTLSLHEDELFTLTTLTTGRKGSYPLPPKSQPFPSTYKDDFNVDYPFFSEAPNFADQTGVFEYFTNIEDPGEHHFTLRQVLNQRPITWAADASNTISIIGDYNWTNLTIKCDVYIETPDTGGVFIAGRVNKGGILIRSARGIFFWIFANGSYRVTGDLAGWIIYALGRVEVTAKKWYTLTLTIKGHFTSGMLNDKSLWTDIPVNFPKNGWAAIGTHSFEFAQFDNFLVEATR

Structure (SMILES) | activation | Potency
CCOc1ccccc1NC(=O)NCCn1c(=O)oc2ccc(C)cc21 | inactive: -21.6% | 
Cc1ccc2sc(N3CCN(C(=O)CCS(=O)(=O)c4ccc(F)cc4)CC3)nc2c1C | inactive: -38.6% | 
COc1ccc(OC)c(CNC(=O)CCn2c(=O)c3cccn3c3ccc(F)cc32)c1 | inactive: -3.76% | 
COc1ccc(Cn2c(C(=O)O)c(CNC3CCCCCC3)c3ccc(OC)cc32)cc1 | inactive: 0.832% | 
O=C(/C=C/c1ccc(F)cc1)Nc1nc2n(n1)C(c1ccc(Cl)cc1)C=C(c1ccccc1)N2 (stereo not given) | inactive: -15.9% | 
Cc1ccccc1-c1nc(CS(=O)(=O)CC(=O)NCc2cccc(Cl)c2)c(C)o1 | inactive: 1.81% | 
Cc1ccc(N2CC(C(=O)Nc3ccc(Br)cc3)CC2=O)cc1 (stereo not given) | inactive: -19.9% | 
CCC1=Nc2cc(C(=O)NC3CCCC3)ccc2Sc2ccc(Br)cc21 | inactive: -13.3% | 
Cc1noc(/C=C/c2ccco2)c1S(=O)(=O)N1CCC(C(=O)Nc2ccc(F)c(Cl)c2)CC1 | inactive: -31.8% | 
COc1ccc(-n2ncc3c(NCCC4=CCCCC4)ncnc32)cc1 | inactive: -23.5% | 
COc1ccc(C(=O)n2nc(-c3ccco3)nc2NCc2cccs2)cc1 | inactive: -6.91% | 
C=Cc1ccc(CN2C(=O)N(c3cccc(Cl)c3)S(=O)(=O)c3ccccc32)cc1 | inactive: -7.18% | 
Cc1ccc2c(=O)c(C(=O)c3cccc(Cl)c3)cn(CC(=O)NCc3ccc(F)cc3)c2n1 | inactive: -8.79% | 
CCN(CC)S(=O)(=O)c1ccc2c(c1)N(CC(=O)N1CCN(c3ccccc3F)CC1)C(=O)CO2 | inactive: -7.59% | 
COc1cc(Nc2nc3ccccc3c3nnc(C)n23)cc(OC)c1 | inactive: -1% | 
CCCCN1CCCc2cc(CN(CCCN3CCOCC3)C(=O)Nc3ccc(OCC)cc3)ccc21 | inactive: -11.8% | 
O=C(NCc1cccc(Cl)c1)C(=O)Nc1ccc2nc3n(c(=O)c2c1)CCCCC3 | inactive: -17.3% | 
COc1cccc(CN2CCc3nc(SCC(=O)Nc4ccccc4)[nH]c(=O)c3C2)c1 | inactive: -3.87% | 
COc1ccc(C)cc1Nc1c2c(nc3nc(-c4cccs4)nn13)CCCC2 | inactive: -10.6% | 
Cc1ccccc1NS(=O)(=O)c1nnc(NC(=O)c2ccccc2C)s1 | inactive: -17% | 
O=S(=O)(NCCS(=O)(=O)N1CCN(c2ccccc2F)CC1)c1ccc(Cl)cc1 | inactive: -19% | 
Cc1ccc(NC(=O)N2CCc3cc(S(=O)(=O)N4CCC(C)CC4)ccc32)cc1C | inactive: -2.55% | 
CC1Cc2cc(S(=O)(=O)NCc3ccccc3Cl)ccc2N1C(=O)C1CCC1 (stereo not given) | inactive: -10.6% | 
CCOC(=O)c1ccc(Nc2ncnc3c2cnn3-c2cccc(Cl)c2)cc1 | inactive: -10% | 

Structure (SMILES) | activation | Potency
CCN(C(=O)c1cc2c(s1)-c1ccccc1OC2)c1cc(Cl)ccc1OC | inactive: -8.66% | 
O=C(NC1CCN(Cc2ccccc2)CC1)c1ccc(Cn2c(=O)c3ccccc3n(Cc3ccccc3)c2=O)cc1 | inactive: 1.66% | 
Cc1ccc(-c2nc(-c3cc4cccc(OCc5cccc(C)c5)c4oc3=O)no2)cc1 | inactive: -15.4% | 
CC(NC(=O)Nc1cc(Cl)ccc1Cl)c1c(-n2cccc2)sc2c1CCCC2 (stereo not given) | inactive: -16.3% | 
COc1ccc(N2CCN(C(=O)CCn3c(=O)c4cccn4c4cccnc43)CC2)cc1 | inactive: 4.69% | 
CCOC(=O)c1ccc(NC(=O)c2ncn(-c3ccccc3)n2)cc1 | inactive: -7.87% | 
CCN(CC)c1ccc(C(=O)N2CCC(c3c[nH]c4ccccc34)(c3c[nH]c4ccccc34)CC2)cc1 | inactive: -20% | 
O=C(c1ccc2c(c1)N(Cc1ccccc1F)C(=O)c1ccccc1S2=O)N1CCN(c2ccccc2)CC1 (stereo not given) | inactive: -7.41% | 
Cc1ccc(NC(=O)/C(C#N)=C/c2cc(C)n(-c3ccc(F)cc3)c2C)cc1C | inactive: -12.4% | 
CCc1ccc(NC(=O)Cn2c3ncccc3c(=O)n2-c2ccc(C)c(C)c2)cc1 | inactive: -32% | 
Cc1ccc(CNC(=O)c2ccc(-n3cnc4cccnc43)cc2)cc1 | inactive: -15.4% | 
CCc1c(C)nc2nncn2c1Nc1ccc(C(C)C)cc1 | inactive: -31.3% | 
CCOC(=O)c1ccc(NC(=O)CC2C(=O)N(c3ccc(F)cc3)C(=O)N2Cc2ccc3c(c2)OCO3)cc1 (stereo not given) | inactive: -27.6% | 
Cc1ccc(C)c(NS(=O)(=O)c2cc3c(cc2Cl)NC(=O)CO3)c1 | inactive: -9.91% | 
CCOC(=O)c1cccc(NC(=O)C2CCN(S(=O)(=O)c3cn(C)cn3)CC2)c1 | inactive: -0.987% | 
COc1ccccc1Nc1nc2ccc(Cl)cc2nc1-n1nc(C)cc1C | inactive: -13.6% | 
COc1ccc(C2CC(=O)Nc3c2c(=O)[nH]c2nc4ccccc4n32)cc1OC (stereo not given) | inactive: -18.7% | 
COCCNC(=O)C(=O)NCC(c1cccnc1)N1CCN(c2ccccc2F)CC1 (stereo not given) | inactive: -9.64% | 
Cc1ccc2oc3c(c(=O)c2c1)C(c1ccc(F)cc1)N(c1nc(C)c(C)s1)C3=O (stereo not given) | inactive: -16.8% | 
COc1ccc(NC(=O)c2nc3nc(C)cc(C(F)F)n3n2)c(C)c1 | inactive: -1.23% | 
COc1cc2ccccc2cc1C(=O)Nc1ccc2oc(-c3cccc(Cl)c3Cl)nc2c1 | inactive: -10.7% | 
CC(C)(C)OC(=O)N1CCC(c2c(C(=O)NCCN3CCC(Cc4ccccc4)CC3)cnn2-c2ccccc2)CC1 | inactive: -13.9% | 
CCc1ccc(NC(=O)N2CC(C)Oc3ccc(C)cc32)cc1 (stereo not given) | inactive: 2.04% | 
COCCCNc1ncnc2c1cnn2-c1ccc(F)cc1 | inactive: -24.7% | 

Structure (SMILES) | activation | Potency
CCc1ccc(S(=O)(=O)c2nnn3c2nc(N2CCCC2)c2sccc23)cc1 | inactive: -4.47% | 
CCCn1c(NCc2ccccc2C)nc2ccccc21 | inactive: 0.319% | 
COc1ccc(-n2cc(-c3ccccc3)nc2SCC(=O)Nc2ccccc2)cc1Cl | inactive: -4.52% | 
CN1C(=O)Cc2cc(S(=O)(=O)CCC(=O)N3CCN(c4ccccc4F)CC3)ccc21 | inactive: 10.4% | 
COc1ccc(NC(=O)COCc2cc(-c3cccs3)on2)cc1 | inactive: -15.4% | 
Cc1ccccc1C1C=C(c2ccc(Cl)cc2)Nc2nnnn21 (stereo not given) | inactive: 1.27% | 
CCOC(=O)c1ccc(NC(=O)Cn2cnc(S(=O)(=O)N3CCCC3)c2)cc1 | inactive: -5.04% | 
COc1ccc(-n2nc3c(N4CCCC(C(=O)NCCc5ccc(C)cc5)C4)nnc(C)c3c2C)cc1 (stereo not given) | inactive: 1.13% | 
COc1ccc(-c2cc(C(F)(F)F)n3nc(C(=O)Nc4cccc(Cl)c4C)cc3n2)cc1 | inactive: -13.3% | 
COc1cc(C2c3c(oc4ccccc4c3=O)C(=O)N2c2nnc(C(C)C)s2)cc(OC)c1OC (stereo not given) | inactive: -15.6% | 
CCOc1ccccc1CNC(=O)c1cc(-c2ccc(OC)cc2)nc2ccc(C(C)C)cc12 | inactive: -4.66% | 
CCOc1ccc(OCC)c(NC(=O)CCc2c(C)nc3c(c2C)c(=O)n(C)c(=O)n3C)c1 | inactive: 5.6% | 
O=C(c1ccc2c(c1)N(Cc1ccccc1)C(=O)c1ccccc1S2(=O)=O)N1CCN(c2ccccn2)CC1 | inactive: -15.8% | 
CCSc1ncc(Cl)c(C(=O)Nc2c(C(=O)Nc3ccc(Cl)cc3)oc3ccccc23)n1 | inactive: 12.7% | 
COc1ccc(/C=C/c2noc(-c3ccccc3O)n2)cc1OC | inactive: -3.4% | 
Cc1ccc(Cn2ccn(Cc3ccccc3C)c(=O)c2=O)cc1 | inactive: -11.6% | 
COC(=O)c1ccccc1NC(=O)Cn1c(=O)n(-c2ccc(Cl)cc2)c(=O)c2c(C)c(C)sc21 | inactive: -1.28% | 
COc1ccc(CNC(=O)c2ccc3c(c2)nc2n3CCCCC2)c(OC)c1 | inactive: 3.26% | 
CCOC(=O)c1cccc(NS(=O)(=O)c2cn(C)c(C)n2)c1 | inactive: -17.7% | 
Cc1cc(C)n(-c2nc3ccccc3nc2Nc2cc(C(=O)O)ccc2C)n1 | inactive: -6.78% | 
Cc1cc(C)cc(-n2nnc(-c3nc(-c4ccccc4F)no3)c2C)c1 | inactive: -22.4% | 
COc1cc(NS(=O)(=O)c2ccc3c(c2)CCCN3C(C)=O)cc(OC)c1OC | inactive: -17.9% | 
Cc1ccc(CN2CCN(CC(=O)NCc3ccccc3Cl)C2=O)cc1 | inactive: -0.781% | 
COc1cccc(-c2cc(C(=O)Nc3ccc(C)cc3)[nH]n2)c1 | inactive: -17.3% | 

Structure (SMILES) | activation | Potency
CCOc1ccc(C(=O)N2CCCCC2CCN2CCOCC2)cc1 (stereo not given) | inactive: -8.45% | 
COc1ccc(NC(=O)c2sc3nc(C)c(C(=O)Nc4ccc(Cl)cc4)c(-c4ccc(Br)cc4)c3c2N)cc1 | inactive: -14.8% | 
Cc1ccc(NC(=O)C(=O)NCC(c2cccnc2)N2CCc3ccccc32)cc1Cl (stereo not given) | inactive: -6.96% | 
COc1ccc(S(=O)(=O)N(CC(=O)NCc2ccc(C)cc2)c2ccc(Cl)cc2)cc1 | inactive: 1.6% | 
Cc1c(Cl)cccc1NC(=O)CCn1nc(C)c2c(C)n(-c3ccccc3)nc2c1=O | inactive: -16.5% | 
O=C(Nc1ccc(F)c(Cl)c1)c1cc(S(=O)(=O)N2CCCc3ccccc32)ccc1F | inactive: -25.5% | 
CCOc1ccccc1NC(=O)CN1C(=O)C2(SCC(=O)N2c2cccc(F)c2)c2ccccc21 (stereo not given) | inactive: -6.83% | 
COc1ccccc1N1CCN(CC(O)COc2cc(C)cc(C)c2)CC1 (stereo not given) | inactive: -29.2% | 
CCOc1ccc(N2C(=O)N(Cc3ccc(C)cc3C)c3ccccc3S2(=O)=O)cc1 | inactive: -14% | 
CCn1cc(C(=O)N2CCN(c3cc(C)ccc3C)CC2)c(=O)c2cc(S(=O)(=O)N(C)C3CCCCC3)ccc21 | inactive: -11.8% | 
Cc1cccc(Nc2c3c(nc4nncn24)CCC3)c1 | inactive: 9.17% | 
COc1ccc(-c2ccc3c(N)c(C(=O)Nc4cc(F)ccc4C)sc3n2)cc1 |  | active: 15.8 µM
Cc1ccc(-c2cc(C(=O)NCCc3ccccc3)c3c(-c4ccc(C)cc4)[nH]nc3n2)cc1 | inactive: -14.5% | 
COc1cccc(CNC(=O)CCCN2C(=O)CSc3c2c(C)nn3-c2ccccc2)c1 | inactive: -12.3% | 
O=c1c2ccccc2n(Cc2cccc(F)c2)c(=O)n1Cc1ccccc1Cl | inactive: -5.02% | 
Cc1cccc(NS(=O)(=O)c2ccc3c(c2)CCN3C(=O)CCC(=O)O)c1C | inactive: -7.34% | 
CCN(c1ccccc1)S(=O)(=O)c1ccc(NC(=O)c2cc(=O)c3cc(C)c(C)cc3o2)cc1 | inactive: -18.4% | 
CCCCN1CCc2nc(N3CCN(c4ncccn4)CC3)ncc2C1 | inactive: -7.19% | 
Cc1ccc(NC(=O)CSc2nc3c([nH]c4ccccc43)c(=O)n2-c2ccccc2)c(C)c1 | inactive: -8.96% | 
CCOc1ccc(C(=O)Nc2ccc3nc(SCc4ccccc4)sc3c2)cc1 | inactive: -16.3% | 
Cc1nc2c(-c3ccc(F)cc3)c(C)nn2c(C)c1CCC(=O)NCc1ccc(Cl)cc1 | inactive: -14.5% | 
CCOc1ccc(NC(=O)c2ccc(-c3ccccc3)s2)cc1 | inactive: -13.9% | 
COc1ccccc1N1CCN(C(=O)Cn2c(=O)nc(-c3ccccc3)c3cc(Cl)ccc32)CC1 | inactive: -17.8% | 
